Measured values taken from PubChem BioAssay AID1508624 (National Center for Advancing Translational Sciences (NCATS), 2021).
The whole screen tested about 48,000 compounds, of which about 120 (0.25%) were called active. Roughly 4% stayed inconclusive and do not appear here. Calls follow the shape of the dose curve; as a rule, active = well fitted activation curve with a large enough effect; inconclusive = small, poorly fitted or top-dose-only effect, or another doubt; inactive = no such curve, though single readings can be large or run the other way. The list shows a part of the results.

Assay: Primary qHTS for Identification of Small Molecule Activators of Huntingtin-Antisense Promoter Activity; also: nearly all actives have a fitted effect of over 55% in size
Details: HEK293 HTT-AS promoter firefly luciferase reporter, 24 h; series mostly up to 57.5 µM; activity change, positive = activation: at the top concentration
In short: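 Quantitative HTS used concentration series of up to 57.5 uM final on HEK293 luciferase reporter cells, 24 h at 37 degrees C. Readout was Dual-Glo firefly luminescence.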

Activity change, positive = activation, inactive:
CCOC(=O)c1c(NC(=O)c2nc(S(C)(=O)=O)ncc2Cl)sc(C(C)=O)c1C 1.81%
O=C1CCCc2cc(S(=O)(=O)N3CCCC(C(=O)NCc4ccc(Cl)cc4)C3)ccc2N1 (centres undefined) -32.7%
COc1cc(OC)cc(-c2nc(-c3ccc4c(c3)[nH]c(=O)n4C)no2)c1 -11.5%
O=C(NCC(c1ccc(Cl)cc1)N1CCOCC1)c1ccccc1F (centres undefined) -2.89%
CCOc1ccc(-c2nnc(SCC(=O)Nc3cccc(OC)c3)nc2-c2ccc(OCC)cc2)cc1 -13%
CCS(=O)(=O)CCn1c([N+](=O)[O-])cnc1C -12.7%
COc1cccc(C2CC(=O)Nc3c2c(=O)[nH]c2nc4ccccc4n32)c1 (centres undefined) -9.62%
COc1ccc(C(=O)NCC(c2ccc3c(c2)OCO3)N2CCN(c3ccccc3F)CC2)cc1 (centres undefined) -37.9%
O=C1CCc2cc(OCCCCc3nnnn3C3CCCCC3)ccc2N1
O=C(COc1ccc([N+](=O)[O-])cc1)Nc1nc2c(s1)CCCC2 -8.24%
CCCn1c2ccccc2c2cnn(CC(=O)N3CCN(c4ccccc4)CC3)c(=O)c21 -10.6%
Cc1cccc(CSc2ncc(Cl)c(C(=O)Nc3nc4ccc(F)cc4s3)n2)c1 -16.3%
Cc1ccc2nc3c(cc(C#N)c(=O)n3-c3nnc(SCc4ccccc4)s3)c(=O)n2c1 15.8%
COc1cc(NC(=O)Cn2cc(C(=O)c3ccc(F)cc3)c(=O)c3ccc(C)nc32)cc(OC)c1 -36.9%
O=C(Cn1c(=O)nc(-c2ccccc2)c2cc(Cl)ccc21)Nc1ccc(F)c(Cl)c1 -14.4%
COc1cccc(CNC(=O)c2ccc(-n3c(C)cc4c3CCC(C)C4)cc2)c1 (centres undefined) 3.89%
CC(C)NC(=O)c1ccc(NC(=O)N2CCCCc3ccccc32)cc1 -22.7%
CCOc1cc(C#N)c(NC(=O)Cn2nnc(-c3ccc(C)cc3)n2)cc1OCC -17.5%
Cc1ccc(-c2cc(C(=O)NCc3ccccc3Cl)c3ccccc3n2)cc1C 15.3%
O=C(Nc1ccccc1C(F)(F)F)n1ncc2cc(Cl)ccc21 7.65%
COc1ccc2cc3c(N)nn(C(=O)c4ccc(OC)c(OC)c4)c3nc2c1 -8.9%
CCOC(=O)c1[nH]c2ccccc2c1NC(=O)c1ccc(Br)cc1 -14%
COc1cccc(CNC(=O)C2CCN(S(=O)(=O)c3ccc4c(c3)CCCN4C(C)=O)CC2)c1 -13.9%
Cc1ccc2c(c1)N(CCCC(=O)Nc1cccc(C(F)(F)F)c1)C(=O)CO2 -31.6%
CCCCOc1cc(C(=O)NCCN(CC)CC)c2ccccc2n1 -16.8%
CCOc1ccc(-c2nc3c(c(SCC(=O)N4CCCCC4)n2)Cc2cccc(OC)c2O3)cc1 -25.9%
CCCCN1C(=O)C(O)(CC(=O)c2ccc(C(C)(C)C)cc2)c2ccccc21 (centres undefined) -22.1%
COc1ccc(NC(=O)c2oc3ccccc3c2NC(=O)COc2ccc(C(C)C)cc2)c(OC)c1 -18.5%
O=C(Nc1ccccc1Cl)c1sc2cccc(Cl)c2c1Cl 12.7%
Cc1ccc(N(CC(=O)Nc2ccc(Cl)cc2)S(=O)(=O)c2cccc3nonc23)cc1 -1.36%
CCOc1cc(CNC(=O)CN2CCSc3ccccc32)cc(OCC)c1OCC -26.5%
COc1cccc(NC(=O)Cn2c(=O)n(Cc3ccccc3)c(=O)c3ccccc32)c1 -1.12%
CN1C(C(=O)Nc2ccc(OC(F)(F)F)cc2)=CC(c2cccs2)=NS1(=O)=O -28.4%
CCSc1nc2n(n1)C(c1ccc(C(=O)O)cc1)C(C(=O)Nc1ccccc1C)=C(C)N2 (centres undefined) 2.88%
COc1ccc(-c2nc3c(c(SCC(=O)N4CCCCC4)n2)Cc2cc(Cl)ccc2O3)cc1 -23.7%
CCC(C)SSc1ncc[nH]1 (centres undefined) -2.37%
CN(C)c1ccc(CNC(=O)Cn2c(=O)oc3cc(S(=O)(=O)N4CCCCCC4)ccc32)cc1 -32.8%
Cc1ccc(NC(=O)Cc2coc3ccc(C(C)C)cc23)cc1Cl -30.3%
CCCS(=O)(=O)c1nc(S(=O)(=O)c2ccc(C)cc2)c(NC)s1 -16.3%
COc1ccc(-n2c(=O)[nH]c3cc(C(=O)NCCc4ccccc4)ccc3c2=O)cc1OC -27.1%
Cc1ccc(-n2ncc(C(=O)N3CCCCC3)c2C2CCN(C(=O)OC(C)(C)C)CC2)c(C)c1 0%
CCOC(=O)c1c(NC(=O)c2ccc(OC)cc2)sc2c1CCCCC2 17.6% [at 11.5 µM, percent change from vehicle, -100% = no light]
O=C(COc1ccccc1)Nc1ccc2nc(SCC(=O)N3CCOCC3)sc2c1 -8.57%
COc1ccc(-c2cc3c(C)nc(N)nc3n(C3CCC(OCCO)CC3)c2=O)cn1 (centres undefined) -28.7%
Cc1ccc(NC(=O)c2cnn3c2NC(c2ccccc2)=CC3c2ccccc2)cc1 (centres undefined) -13.3%
CCCn1c2ccccc2c2nnc(SCC(=O)Nc3cccc(C(C)=O)c3)nc21 -27.5%
CCN(Cc1ccccc1)C(=O)c1cnn(-c2ccc(F)cc2)c1-n1cccc1 -30.7%
CCC(Sc1nnc(C)n2c1cc1occc12)C(=O)Nc1ccccc1OC (centres undefined) -18.3%
COc1ccccc1OC(C)C(=O)Nc1cccc(-c2nc3ccccc3o2)c1 (centres undefined) 7.81%
CC(=O)c1ccc(NC(=O)Cn2nc(N3CCN(c4ccccc4)CC3)ccc2=O)cc1 -12.6%
CC(=O)c1sc(N2C(=O)c3oc4ccccc4c(=O)c3C2c2ccc(C)cc2)nc1C (centres undefined) -4.97% [at 11.5 µM, percent change from vehicle, -100% = no light]
CCCSc1nc2c([nH]c3ccccc32)c(=O)n1C -8.71%
O=C(NCc1cccnc1)c1nn(-c2ccc(F)cc2)nc1CO -21.5%
COc1ccccc1CNC(=O)CSC1=Nc2ccccc2N=C(c2ccc(F)cc2)C1 -33.3%
CCc1ccc(NS(=O)(=O)c2ccc3[nH]cc(C(=O)NCCCOC(C)C)c(=O)c3c2)cc1 -22.4%
Cc1ccc(Cl)cc1N1CCN(S(=O)(=O)c2ccc3c(c2)CCN3C(=O)C2CCC2)CC1 -8.42%
Cc1coc2c1C(=O)C(=O)c1c-2ccc2c(C)cccc12 -22.5%
CC(C)c1nc2ccc(C(=O)Nc3ccccc3F)cc2o1 -37.9%
COc1ccc(NC(=O)CCCn2nc(C)c3sc4ccccc4c3c2=O)cc1 -3.35%
COc1ccc(S(=O)(=O)NCCSc2nnnn2-c2ccccc2)cc1 -14.9%
COc1ccc(-c2nc(CSCC(=O)N3CCN(c4ccc(F)cc4)CC3)c(C)o2)cc1 -51%
CCN(Cc1ccccc1)S(=O)(=O)c1ccc(-c2coc(C)n2)cc1 -26.9%
Cc1cc(-n2c(C)nc3ccccc3c2=O)ccc1NC(=O)C(F)(F)F -6.52%
O=C(Cn1ncc2c3ccccc3n(Cc3ccc(F)cc3)c2c1=O)NCc1cccs1 -4.39%
CC(CNC(=O)c1ccc2nc(Cc3ccccc3)oc2c1)c1ccccc1 (centres undefined) -14.9%
Cc1cccc(Cc2c(C)nc3c(-c4ccccc4)c(C)[nH]n3c2=O)c1 -58.2%
CC1CCCN(S(=O)(=O)c2ccc3c(c2)CCN3C(=O)CCC(=O)O)C1 (centres undefined) -5.26%
COc1ccc(NS(=O)(=O)c2ccc3nc(-c4ccccc4)[nH]c3c2)cc1 -34.5%
Cc1cc(C(=O)Nc2ccc(-n3c(C)nc4ccccc4c3=O)cc2)ccc1[N+](=O)[O-] -12.6%
O=C(O)c1ccccc1-c1ccc(C(F)(F)F)cc1 -2.83%
O=C(CSc1nnc(-c2ccc(F)cc2)o1)N1CCCc2ccccc21 -10.5%
Cc1ccc(CSc2nnc3[nH]c(=O)cc(-c4ccccc4)n23)cc1 -1.23%
O=C(CCC1N=C2c3ccccc3N=C(SCc3ccc(Cl)cc3)N2C1=O)N1CCN(c2ccccc2)CC1 (centres undefined) -0.922%
COc1ccc(N2CCN(CCCNC(=O)Nc3ccccc3)CC2)cc1 0.91%
COC(=O)c1sccc1S(=O)(=O)N(CC(=O)NCc1ccc(C)cc1)c1ccc(C)cc1 -17.9%
Cc1ccccc1-n1c(Cn2nc(-c3cccc(O)c3)c3c(N)ncnc32)nc2cccc(C)c2c1=O -42%
Fc1ccc(-c2nc(Nc3cccc(C(F)(F)F)c3)nc3c2COc2ccccc2-3)cc1 -14.5%
COc1cc(Nc2nc3ccccc3nc2NS(=O)(=O)c2ccc(NC(=O)c3ccc(C)c(OC)c3)cc2)cc(OC)c1 -26.5%
CCn1cc(C(=O)NCc2ccc(Cl)cc2)c(=O)c2cc(S(=O)(=O)N(C)C3CCCCC3)ccc21 -29%
CCN(C(=O)Cn1c(=O)n(-c2ccccc2)c(=O)c2ccc(C(=O)NCc3ccc4c(c3)OCO4)cc21)c1cccc(C)c1 -11.1%
Cc1c(Cl)cccc1NS(=O)(=O)c1ccc(-c2cnc(C3CC3)o2)cc1 -42.1%
Cc1cc(C)cc(OCC(=O)Nc2c(C(=O)c3ccccc3)oc3ccccc23)c1 -4.18%
O=C(CCn1c(=O)c2cccn2c2cccnc21)Nc1ccccc1C(F)(F)F -7.86%
CCC(=O)N1c2ccccc2CC1C(=O)NCc1cc(OC)ccc1OC (centres undefined) -2.89%
CC(C)c1ccc(NC(=O)c2cc(S(=O)(=O)N(C)C3CCCCC3)ccc2F)cc1 -24.1%
CCCCn1cnc2cc(NCc3ccc(OCC)cc3)ccc21 3.51%
CCOc1ccc(NC(=O)c2cc(S(=O)(=O)N3CCc4ccccc43)ccc2F)cc1 -36.1%
CCCCCCCCCCCCSCCOCCO -6.31%
Cc1ccc2c(=O)cc(C(=O)Nc3ccc(S(=O)(=O)Nc4onc(C)c4C)cc3)oc2c1C -2.23%
O=C(CSc1oc(-c2ccccc2)nc1S(=O)(=O)c1ccc(Cl)cc1)c1ccccc1 -6.84%
O=C(CC1C(=O)N(c2ccc(F)cc2)C(=O)N1Cc1ccc2c(c1)OCO2)Nc1ccc(Cl)cc1 (centres undefined) -10.9%
Cc1ccc(-n2cc(C(=O)Oc3ccc(F)cc3)c3ccccc3c2=O)cc1 -19.3%
Cc1[nH]c(C=C2C(=O)Nc3ccc(S(=O)(=O)N(C)c4cccc(Cl)c4)cc32)c(C)c1C(=O)N1CCN(C)CC1 -14.9%
Cc1cc(C)nc(-n2nc(C)c3c2N(Cc2ccccc2)C(=O)CC3c2ccc(Cl)cc2)n1 (centres undefined) -30.8%
